The structures appear in SMILES notation. Some of the results follow. Many values rest on one well or one pass, so single values are uncertain.
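Further: cell number obtained by counting DAPI-stained nuclei in high-throughput microscope images with image analysis software, screen run in 1,536-well plates.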

The assay has as its system A101D. Kind of assay: cell count relative to DMSO control; melanoma cells; higher = more viable cells. The settings on record: library dose: low library concentration; 72 h.
`Nc1ccn([C@@H]2O[C@H](CO)[C@@H](O)C2(F)F)c(=O)n1` [gemcitabine] + Oc1nc(-c2ccc(C(F)(F)F)cc2)nc2c1CSCC2 [XAV939] (first compound 0.0004 µM, partner dose 2 µM) showed a cell count of 91.5%.

`Nc1ccn([C@@H]2O[C@H](CO)[C@@H](O)C2(F)F)c(=O)n1` [gemcitabine] + COc1ccc2c(c1)CCC1C2CCC2(C)C(NCCCCCCN3C(=O)C=CC3=O)CCC12 [U73122] (first compound 0.0004 µM, partner dose 0.4 µM) displayed a cell count of 90.4%.

In the case of `CC(=O)c1c(C)c2cnc(Nc3ccc(N4CCNCC4)cn3)nc2n(C2CCCC2)c1=O` [palbociclib] + O=c1cc(-c2cccc3c2Sc2ccccc2S3)oc(N2CCOCC2)c1 [KU55933] (first compound 0.04 µM, partner dose 1 µM), the cell count amounted to 76.7%.

The compound `CC(=O)c1c(C)c2cnc(Nc3ccc(N4CCNCC4)cn3)nc2n(C2CCCC2)c1=O` [palbociclib] + Cc1cc([N+](=O)[O-])ccc1NS(=O)(=O)c1cc(Cl)ccc1Cl [FH535] (first compound 0.04 µM, partner dose 1 µM) showed a cell count of 57.4%.

For the compound `Nc1ncn([C@H]2C[C@H](O)[C@@H](CO)O2)c(=O)n1` [decitabine] + CCCCCCCCCCCC1=C(O)C(=O)C=C(O)C1=O [Embelin] (first compound 0.1 µM, partner dose 1.2 µM), the cell count was 84.8%.

In the case of `Nc1ccn([C@@H]2O[C@H](CO)[C@@H](O)C2(F)F)c(=O)n1` [gemcitabine] + CCCCCCCCCCCC1=C(O)C(=O)C=C(O)C1=O [Embelin] (first compound 0.0004 µM, partner dose 1.2 µM), the cell count was 121%.

In turn, `Nc1nc(F)nc2c1ncn2[C@@H]1O[C@H](CO)[C@@H](O)[C@@H]1O` [fludarabine] + CC(C)CCN1c2nc(Nc3cc(F)c(O)c(F)c3)ncc2N(C)C(=O)C1C [BID1870] (first compound 0.2 µM, partner dose 0.2 µM) showed a cell count of 88.4%.

The compound `CO[C@H]1C[C@@H]2CC[C@@H](C)[C@@](O)(O2)C(=O)C(=O)N2CCCC[C@H]2C(=O)O[C@H]([C@H](C)C[C@@H]2CC[C@@H](OCCO)[C@H](OC)C2)CC(=O)[C@H](C)/C=C(\C)[C@@H](O)[C@@H](OC)C(=O)[C@H](C)C[C@H](C)/C=C/C=C/C=C/1C` [everolimus] + COc1ccc(-c2ccc3c(N4CCOCC4)nc(N4C[C@@H](C)O[C@@H](C)C4)nc3n2)cc1CO [KU0063794] (first compound 0.02 µM, partner dose 0.02 µM) gave a cell count of 80.7%.

For the compound `CC(=O)O[C@@]12CO[C@@H]1C[C@H](O)[C@@]1(C)C(=O)[C@H](O)C3=C(C)[C@@H](OC(=O)[C@H](O)[C@@H](NC(=O)OC(C)(C)C)c4ccccc4)C[C@@](O)([C@@H](OC(=O)c4ccccc4)[C@H]21)C3(C)C` [Docetaxel] + CCN(CC)CCCCNc1ncc2cc(-c3cc(OC)cc(OC)c3)c(NC(=O)NC(C)(C)C)nc2n1 [PD173074] (first compound 0.0001 µM, partner dose 0.1 µM), the cell count is 62.9%.

As for `Nc1nc(F)nc2c1ncn2[C@@H]1O[C@H](CO)[C@@H](O)[C@@H]1O` [fludarabine] + CN(NC(=O)CC(=O)NN(C)C(=S)c1ccccc1)C(=S)c1ccccc1 [STA4783] (first compound 0.2 µM, partner dose 0.006 µM), the cell count worked out at 88.4%.

In the case of `Nc1ncn([C@H]2C[C@H](O)[C@@H](CO)O2)c(=O)n1` [decitabine] + c1cc(-c2cnn3cc(-c4ccc(OCCN5CCCCC5)cc4)cnc23)ccn1 [Dorsomorphin] (first compound 0.1 µM, partner dose 0.4 µM), the cell count turned out to be 101%.

On to `CC(=O)c1c(C)c2cnc(Nc3ccc(N4CCNCC4)cn3)nc2n(C2CCCC2)c1=O` [palbociclib] + COc1cc(N2CCC(N3CCN(C)CC3)CC2)ccc1Nc1ncc(Cl)c(Nc2ccccc2S(=O)(=O)C(C)C)n1 [NVP-TAE684] (first compound 0.04 µM, partner dose 0.08 µM), for which the cell count was found to be 62.4%.

In turn, `CC(=O)O[C@@]12CO[C@@H]1C[C@H](O)[C@@]1(C)C(=O)[C@H](O)C3=C(C)[C@@H](OC(=O)[C@H](O)[C@@H](NC(=O)OC(C)(C)C)c4ccccc4)C[C@@](O)([C@@H](OC(=O)c4ccccc4)[C@H]21)C3(C)C` [Docetaxel] + CCCCCCCCCCCC1=C(O)C(=O)C=C(O)C1=O [Embelin] (first compound 0.0001 µM, partner dose 1.2 µM) came in with a cell count of 55.8%.

Source of the values: the supplement of paper PMC4604168 (melanoma cell lines).
